# Test results from article PMC4336329 (PLoS ONE, 2015).
# Hit rate of the full screen: of about 310,000 compounds, about 14,000 (4.5%) showed an effect of 50% or more. The effect is printed as a negative number. The list shows a part of the results.
# Biological target: human ether-à-go-go-related gene (hERG) potassium channel (human, UniProt Q12809)
# Test: primary screen, population patch clamp on CHO cells stably expressing hERG
# 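Also: peak tail current of the secondary pulse compared with the same well before compound.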
# human ether-à-go-go-related gene (hERG) potassium channel, sequence (Q12809 whole entry, looked up): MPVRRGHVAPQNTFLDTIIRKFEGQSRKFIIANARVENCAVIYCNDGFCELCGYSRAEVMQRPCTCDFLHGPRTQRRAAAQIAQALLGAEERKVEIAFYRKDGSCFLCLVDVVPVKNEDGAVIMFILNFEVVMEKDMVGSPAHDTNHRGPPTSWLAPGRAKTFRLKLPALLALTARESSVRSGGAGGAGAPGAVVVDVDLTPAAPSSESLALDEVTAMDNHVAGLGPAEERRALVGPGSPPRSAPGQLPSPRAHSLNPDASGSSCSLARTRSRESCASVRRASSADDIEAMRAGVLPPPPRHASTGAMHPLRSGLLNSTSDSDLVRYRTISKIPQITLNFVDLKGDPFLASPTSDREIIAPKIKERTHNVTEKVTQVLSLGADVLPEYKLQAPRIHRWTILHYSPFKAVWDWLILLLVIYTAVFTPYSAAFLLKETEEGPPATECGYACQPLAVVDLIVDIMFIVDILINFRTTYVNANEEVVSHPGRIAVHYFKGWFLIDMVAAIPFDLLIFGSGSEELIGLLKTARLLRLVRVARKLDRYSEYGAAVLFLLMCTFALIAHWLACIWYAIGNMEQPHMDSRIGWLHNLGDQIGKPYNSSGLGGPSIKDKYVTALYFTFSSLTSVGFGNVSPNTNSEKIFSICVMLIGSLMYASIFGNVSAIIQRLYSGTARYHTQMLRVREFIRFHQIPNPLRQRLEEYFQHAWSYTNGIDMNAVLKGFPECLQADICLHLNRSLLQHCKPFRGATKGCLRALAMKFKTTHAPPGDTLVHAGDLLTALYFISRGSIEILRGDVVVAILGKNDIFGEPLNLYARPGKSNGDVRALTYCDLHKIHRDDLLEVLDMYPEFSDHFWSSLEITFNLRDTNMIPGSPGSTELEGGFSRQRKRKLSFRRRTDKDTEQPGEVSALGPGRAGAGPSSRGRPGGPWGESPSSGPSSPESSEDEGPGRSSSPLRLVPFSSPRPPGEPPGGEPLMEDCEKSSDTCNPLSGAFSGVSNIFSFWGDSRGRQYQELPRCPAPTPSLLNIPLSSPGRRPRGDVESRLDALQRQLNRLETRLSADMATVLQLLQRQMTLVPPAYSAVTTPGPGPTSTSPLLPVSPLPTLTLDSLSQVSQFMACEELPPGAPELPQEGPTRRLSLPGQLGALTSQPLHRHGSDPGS
row,SMILES,"hERG current change (%, negative = inhibition) at 10uM [%]"
1,CN1CCN(CCCCOc2cccc3ccccc23)CC1.Cl,-27.4
2,O=C(Oc1ccc(Br)cc1C(=S)N1CCOCC1)c1ccc([N+](=O)[O-])cc1[N+](=O)[O-],16.4
3,O=C(COc1ccc(S(=O)(=O)NCc2ccccc2)cc1Cl)NCC1CCCO1 (stereo not drawn),-40.4
4,CC(C)=N/N=C1\NC(=O)C(C)S1 (stereo not drawn),12.7
5,O=C(COC(=O)CCc1ccc(S(=O)(=O)N2CCCCC2)cc1)Nc1cccc2ccccc12,-17.8
6,O=C(CS(=O)(=O)Cc1ccccc1)Nc1ccc(Cl)cn1,-11.9
7,COC(CCN(C)C)(c1ccccc1)c1ccccc1,6.01
8,CCOC(=O)N1CCN(C(=O)CSc2nc(-c3cccc(C)c3)ns2)CC1,-38.8
9,COc1ccccc1-c1c(C)oc2c(CN3CCCCC3C)c(O)ccc2c1=O (stereo not drawn),-1.14
10,Cn1c(SCC(=O)C(C)(C)C)nnc1-c1cccnc1,-1.57
11,CCC(=O)Nc1ccc(NC(=O)CSc2nc3cc4c(cc3cc2C)CCC4)cc1,3.1
12,CC(C)C[C@H]1CN=C(Nc2ccccc2)N1CC1CCC1,-30.2
13,CCOC(=O)c1sc(NC(=O)CSc2nc3c(c(=O)n2-c2ccc(C)cc2)SCC3)c(C(=O)OCC)c1C,3.69
14,O=c1c(C=Nc2cccc(C(F)(F)F)c2)c[nH]n1-c1cccc(Cl)n1,5.39
15,Cn1c(=O)[nH]c(=O)c2c1nc(N1CCCCCC1)n2CCSc1nc2ccccc2o1,3.31
16,O=c1ccc2ccc(Oc3ccc(Cl)cc3[N+](=O)[O-])cc2o1,-5.35
17,Cc1nnc(N(Cc2ccco2)C(=O)c2ccno2)s1,1.77
18,CCN(CC)S(=O)(=O)c1ccc(C(=O)NC(=S)N(CCC#N)Cc2cccnc2)cc1,12.6
19,CCn1c(SCC(=O)Nc2ccc3c(c2)OCO3)nnc1-c1cnccn1,-40.5
20,NC(=O)C1CCN(C(=O)c2cnn(-c3ccccc3)c2NC(=O)c2ccco2)CC1,6.53
21,O=C(COC(=O)Cc1cccc(C(F)(F)F)c1)Nc1ccccc1,11.2

row,SMILES,"hERG current change (%, negative = inhibition) at 10uM [%]"
1,CCn1ncc(CN2CCN(Cc3ccc(OC)c(C)c3C)C(CCO)C2)c1C (stereo not drawn),-19.9
2,O=C(Cn1cnc([N+](=O)[O-])c1)Nc1ccccc1C(F)(F)F,-14.3
3,O=C(CCN1C(=O)COc2ccccc21)NCCN1CCOCC1,13.5
4,COC(=O)Cn1c(=NC(=O)c2cc(OC)cc(OC)c2)sc2cc(OC)ccc21,21.9
5,O=C(COC(=O)/C=C/c1cccc(C(F)(F)F)c1)NC(c1ccccc1)c1ccccc1,-8.94
6,CN(C(=O)COC(=O)c1cc(-c2ccccc2Cl)nc2ccccc12)C1CCS(=O)(=O)C1 (stereo not drawn),-30.9
7,O=C(CN1CCN(c2ccccc2)CC1)N1N=CCC1c1ccccc1 (stereo not drawn),5.51
8,COC(=O)CCC/C=C1/SCC(NC(=O)c2ccccc2)C1=O (stereo not drawn),-5.45
9,CC(=O)c1ccc(OCC(=O)OCc2cc(-c3ccco3)on2)cc1,6.87
10,COc1cccc(C(C(=O)NC2CCCC2)N(C(=O)c2ccco2)c2ccc(NC(C)=O)cc2)c1OC (stereo not drawn),-64
11,CCc1cc2cc(OC)ccc2nc1SCC(=O)NNC(=O)c1ccco1,17.9
12,O=S(=O)(c1cccc2cccnc12)n1cnc2ccccc21,0.398
13,CCCn1c(SCC(=O)NCCc2ccc(Cl)cc2Cl)n[nH]c1=O,3.12
14,CCCCNC(=O)C1CCN(Cc2ccc(OCc3ccccc3)c(OC)c2)CC1.O=C(O)C(=O)O,-67.2
15,O=C(NCC1CCCO1)C(=O)N/N=C/c1c(F)cccc1Cl (stereo not drawn),8.04
16,Cc1ccc(S(=O)(=O)N2CCN(CC(=O)NC(=O)NCc3ccco3)CC2)cc1C,-7.18
17,CCC1CCCCN1CCCNC(=O)C1CCN(c2ncnc3c2nc2n3CCCCC2)CC1 (stereo not drawn),-3.01
18,CN1c2ccccc2C(C)(C)C12C=Nc1c(ccc3ccccc13)O2 (stereo not drawn),20.6
19,CN(C)CCCNc1nc(N)c([N+](=O)[O-])c(NC2CCCCC2)n1,-44.5
20,O=C(Nc1ccc(Br)cc1)C1CCN(C(=O)c2ccc(F)cc2)CC1,-61.9
21,CN(CC(=O)Nc1cc(S(=O)(=O)N2CCCC2)ccc1Cl)Cc1cccs1,-16

row,SMILES,"hERG current change (%, negative = inhibition) at 10uM [%]"
1,COc1ccc(OC)c2c(N3CCN(C)CC3)cc(C(F)(F)F)nc12,5.62
2,CN1CCN(CCCNC(=O)c2ccc(Cn3c(=S)[nH]c4ccc(Br)cc4c3=O)cc2)CC1,17.4
3,Clc1ccc(-c2nnc(CNC3CC3)o2)cc1,-8.92
4,CC12CCC(=O)N1C(C(=O)NCCN1C(=O)S/C(=C\c3ccc(F)cc3)C1=O)CS2 (stereo not drawn),-35.2
5,Cc1ccc(C)c(NC(=O)c2ccc3c(=O)n4c(nc3c2)CCC4)c1,-25.9
6,CC(C)c1ccc2[nH]c(O)c(N=NC(=O)c3ccc(CSc4nncn4C)cc3)c2c1,-6.81
7,COC(=O)c1ccc(C23CC4(C2)[C@H](CN(Cc2cccnc2)[C@@H]4c2ccccc2)C3c2ccccc2)cc1 (stereo partly drawn),12.8
8,Cn1cnnc1SCC(=O)Nc1ccc2nc(SCc3ccccc3F)sc2c1,-2.21
9,CCCC(=O)Nc1nnc(S(=O)(=O)N(CC)c2ccc(OC)cc2)s1,19.6
10,C/C(=N\NC(N)=S)c1ccccc1,4.72
11,CCN(CC)CCCNC(=O)c1oc2ccc3c(c2c1C)C(O)CC(C)(C)O3 (stereo not drawn),-4.08
12,CC(=O)c1ccc(-c2ccc([C@H]3[C@H]4C=CC[C@@H](C)[C@@H]4C(=O)N3Cc3ccccc3)c(F)c2)cc1,4.91
13,Cc1onc(-c2ccccc2)c1C(=O)N(C)CCc1ccccn1,7.12
14,CCn1c(O)c(N=NC(=O)CNC(=O)/C=C/c2ccccc2)c2ccccc21,2.78
15,COc1ccc(OC)c(NS(=O)(=O)c2ccc(NC(=O)C3COc4ccccc4O3)cc2)c1 (stereo not drawn),-5.52
16,CCC1(C)NC(C(=O)O)Cc2c1[nH]c1ccccc21 (stereo not drawn),7.01
17,CC(=O)C(Sc1nnnn1-c1ccc(O)cc1)c1ccccc1 (stereo not drawn),-14.3
18,c1ccc(-c2cnc(-c3ccccc3)nc2)cc1,13.4
19,CCCOC(=O)c1c(N)sc2c1CCC2,15.4
20,Cc1ccc(-c2csc(NCCn3c(-c4ccncc4)nc4ccccc43)n2)cc1,9.36
21,CC(/C=N/NC(=O)c1cccc(F)c1)=C\c1ccccc1,13.9

row,SMILES,"hERG current change (%, negative = inhibition) at 10uM [%]"
1,COC(=O)[C@H](C)NC(=O)Nc1cccc(C)c1,14.4
2,CCC(Sc1nc2sc(C(=O)OC)c(C)c2c(=O)n1N)C(=O)N(CC)CC (stereo not drawn),-1.27
3,O=C(NC1CCN(S(=O)(=O)c2cccc([N+](=O)[O-])c2)CC1)C1CCCCC1,15.3
4,CC(C)Oc1ncnc2c1[nH]c1ccccc12,-1.71
5,Cc1ccc2[nH]cc(CCNS(=O)(=O)c3ccc(F)cc3)c2c1,-4.39
6,Cc1cc(NC(=O)CCN2C(=O)/C(=C/c3ccccc3F)SC2=S)no1,20.6
7,Cc1cc(C)cc(NC(=O)COC(=O)CCCC2=NS(=O)(=O)c3ccccc3N2)c1,-55.9
8,CCOC(=O)c1cn(-c2ccccc2)nc1-c1ccncc1,-10.3
9,CCn1cc(/C=N\NC(=O)Cc2ccc([N+](=O)[O-])cc2)c(C)n1,-25.1
10,O=C(N/C=C/c1ccccc1)c1ccccc1,15.8
11,COc1ccc(N=C2C(=Nc3ccc(OC)cc3)N(c3ccccc3)C(=S)N2C(=O)c2ccc(Cl)cc2)cc1,1.57
12,COc1ccccc1-n1c(SCC(=O)NC2CCS(=O)(=O)C2)nc2ccccc2c1=O (stereo not drawn),-3.39
13,COc1ccc(NC(=O)COC(=O)CCC(=O)c2cccs2)cc1OC,-9.29
14,CCN(CC(=O)Nc1c(F)cccc1F)C(=O)C1CCN(S(=O)(=O)c2ccc(C)cc2C)CC1,-6.91
15,CC(C)[C@H]1C(=O)O[C@H](C(C)C)C(=O)N(C)[C@@H](C(C)C)C(=O)O[C@H](C(C)C)C(=O)N(C)[C@@H](C(C)C)C(=O)O[C@H](C(C)C)C(=O)N1C,-9.97
16,Clc1ccc(/C=C/c2nc3ccccc3[nH]2)c(Cl)c1,-8.14
17,OC(COc1ccc(CNCCc2ccccc2F)cc1)CN1CCCCC1 (stereo not drawn),3.84
18,COC(=O)c1ccc(CNC(=O)C2CCC(=O)N(CCN3CCOCC3)C2)cc1 (stereo not drawn),69.7
19,CCCn1nc2ccccc2c1P(=N)(N1CCOCC1)N1CCOCC1.Cl,16
20,O=C(Cn1nc(C(=O)O)c2ccccc2c1=O)NC12CC3CC(CC(C3)C1)C2,6.66
21,Oc1c(Cl)cc(Cl)c(Cl)c1Cc1c(O)c(Cl)cc(Cl)c1Cl,27.4
